# The full ranking holds about 81,000 sequences; the median of “one-hybrid fitness for binding parS DNA” is about -0.17, and the highest 2% start at about 0.51. This is one part of the list.
# B1: Caulobacter ParB omega fusion; a variant is named by its letters at X, in order, B8GW30 (parent)
# chain: MESVVVGEPGMSEGRRGLGRGLSALLGEVDAAPAQAPGEQLGGSREAPIEILQRNPDQPRRTFREEDLEDLSNSIREKGVLQPILVRPSPDTAGEYQIVAGERAWRAAQRAGLKTVPIMVRELDDLAVLEIGIIENVQRADLNVLEEALSYKVLMEKFERTQENIAQTIGKSXSHVANXMRLLXLPDEVQSYLVSGELTAXHARAIAAAADPVALAKQIIEGGLSVRETEALARKAPNLSAGKSKGGRPPRVKDTDTQALESDLSSVLGLDVSIDHRGSTGTLTITYATLEQLDDLCNRLTRGI
# Variants of: B1
# Assay: one-hybrid fitness for binding parS DNA (scaled: cognate 1, non-cognate 0); higher = stronger binding
# Conditions: with parS DNA site
# Summary of the method: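 Pre- and post-selection plasmids were Illumina-sequenced, three replicate libraries were pooled, and any variant with under 10 reads was removed. The libraries were Caulobacter ParB with four specificity codons randomised, selected in E. coli USO through a HIS3 reporter whose site is 19 bp from the promoter. Cells grew 48 hours at 37°C on M9 without histidine, with 0.1 mM IPTG and 5 mM 3-AT. Fitness is the log change in variant-to-wild-type read ratio, rescaled against cognate and non-cognate.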
row,Variant,one-hybrid fitness for binding parS DNA
1,KENR,≤ 0.2
2,REGT,0.201
3,REPP,≤ 0.2
4,SNCT,≤ 0.2
5,SQTF,≤ 0.2
6,LQNG,≤ 0.2
7,INSC,≤ 0.2
8,LVDR,≤ 0.2
9,HPHM,≤ 0.2
10,LIGT,≤ 0.2
11,QWIA,≤ 0.2
12,NQES,≤ 0.2
13,DTSI,≤ 0.2
14,HCLM,≤ 0.2
15,QCVW,≤ 0.2
16,VEQT,≤ 0.2
17,PKVT,≤ 0.2
18,ESCT,≤ 0.2
19,WFCG,≤ 0.2
20,LQHM,≤ 0.2
21,YILR,≤ 0.2

row,Variant,one-hybrid fitness for binding parS DNA
1,LFGC,≤ 0.2
2,WGNT,≤ 0.2
3,QADD,≤ 0.2
4,VQHA,≤ 0.2
5,THKY,≤ 0.2
6,KAQD,≤ 0.2
7,TMMR,≤ 0.2
8,TWAG,≤ 0.2
9,SAMV,≤ 0.2
10,SRYC,≤ 0.2
11,LGSK,≤ 0.2
12,SESE,≤ 0.2
13,VAAT,≤ 0.2
14,SMKR,≤ 0.2
15,YKPL,≤ 0.2
16,LVAW,≤ 0.2
17,WTLC,≤ 0.2
18,RIPH,≤ 0.2
19,LCYC,≤ 0.2
20,SAYD,≤ 0.2
21,SGYV,≤ 0.2

row,Variant,one-hybrid fitness for binding parS DNA
1,PPKC,≤ 0.2
2,CEPV,≤ 0.2
3,RKNW,≤ 0.2
4,RTLY,0.495
5,PYTD,≤ 0.2
6,RVPG,0.691
7,NPIC,≤ 0.2
8,ARAM,≤ 0.2
9,LVWL,≤ 0.2
10,RMHP,≤ 0.2
11,DPAF,≤ 0.2
12,VMNS,≤ 0.2
13,CVDK,≤ 0.2
14,APLS,≤ 0.2
15,QQAE,≤ 0.2
16,AWAT,≤ 0.2
17,SLRC,≤ 0.2
18,CCVV,≤ 0.2
19,SNGG,≤ 0.2
20,NEKN,≤ 0.2
21,KRRL,≤ 0.2

row,Variant,one-hybrid fitness for binding parS DNA
1,TRYL,≤ 0.2
2,LQPM,≤ 0.2
3,DLRV,≤ 0.2
4,WRSS,≤ 0.2
5,VDLA,≤ 0.2
6,FAAG,≤ 0.2
7,QLQT,≤ 0.2
8,VGSI,≤ 0.2
9,QPHG,≤ 0.2
10,RITQ,≤ 0.2
11,IYVS,≤ 0.2
12,ETQI,≤ 0.2
13,CTPR,≤ 0.2
14,IWMS,≤ 0.2
15,CPPY,≤ 0.2
16,RRII,≤ 0.2
17,CVTW,≤ 0.2
18,PQFR,≤ 0.2
19,VREI,≤ 0.2
20,WGKR,≤ 0.2
21,PAGC,≤ 0.2

# From a collection of fitness landscapes (doi:10.1016/j.celrep.2020.107928)
